# Measurements reported in the supplement of paper PMC3334620.
# Over roughly 33,000 sequences, “E-score (-0.5 to 0.5)” has its median near -0.016; the highest 2% begin near 0.31. This is one part of the list.
# Target: Cst6 (UniProt P40535)
# Assay: PBM E-score (8-mer binding enrichment) (E-score (-0.5 to 0.5)); higher = stronger / more preferred TF binding; most listed sequences are background and not binding sites
# Conditions: protein concentration: 200 nM; construct: GST-DNA-binding domain
# Experimental: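 Universal 'all 10-mer' protein binding microarrays (Agilent AMADID 015681) probed with GST-tagged S. cerevisiae TFs (full-length or DBD) made by in vitro transcription/translation (PURExpress), about 100-200 nM. Bound TF was detected with fluorescent anti-GST. Each ungapped 8-mer (which stands for itself and its reverse complement) is scored by the PBM enrichment score (E-score), a modified Wilcoxon-Mann-Whitney statistic from -0.5 to +0.5, computed with the Universal PBM Analysis Suite. Scale: above 0.35 generally sequence-specific binding.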
row,Sequence,PBM E-score
1,AGCTGAAA,-0.0174
2,AGGACTCA,-0.176
3,AACCTGAC,0.128
4,AGACCTCA,0.022
5,CCCAACGA,-0.0437
6,ACCTTAGT,-0.00291
7,GACGACTC,-0.145
8,TAAGCAGA,-0.0885
9,CCAACGCA,0.0742
10,AGTCGGCG,-0.0479
11,GAAGTTTA,0.0898
12,ACTCGTGC,-0.103
13,GAGGGATC,-0.28
14,CTCGCAGC,-0.132
15,CGACATAA,0.0706
16,ACCGATGG,-0.105
17,AGCTATAC,0.0184
18,GAAGTTGC,-0.12
19,ACGTGTTG,0.223
20,CGTCCCAG,-0.116
21,GTAGGCCA,-0.112
22,AGATGCTC,-0.104
23,CAGTGGCG,-0.0803
24,AGGAAGAC,-0.232
25,ACACGATG,0.128

row,Sequence,PBM E-score
1,GGTATAAC,0.0592
2,ACGCCTCA,0.091
3,ATCGGCGC,0.141
4,GCATTAAC,0.131
5,AAATAAGG,0.183
6,AGCTCCAC,-0.301
7,TAGCGACA,-0.0291
8,CACCAGAG,-0.163
9,AGTTTTAG,0.0464
10,GTTACTTA,0.198
11,GCGCCCGA,-0.123
12,AAGACGCA,-0.0715
13,ACCTAATA,0.27
14,GGACATGA,-0.0513
15,ATCCTAAA,-0.0826
16,ACAACTAA,0.259
17,GCAAGTCA,-0.00498
18,ACTGACAA,0.113
19,GTGCTTAA,0.0338
20,CCAGAAGG,-0.0896
21,ACATTTTC,0.209
22,GACCTCCC,-0.4
23,TAGGATAA,-0.00402
24,CGCTAACC,-0.0866
25,ATCGTCAC,0.401

row,Sequence,PBM E-score
1,TCGGGGCA,-0.302
2,TCATCGGA,0.217
3,CCACAGCC,-0.308
4,CCCAGTCC,-0.225
5,CCCACTGA,-0.0689
6,CACAAAGG,0.13
7,AGCAGACA,-0.165
8,ACGGACAT,0.0181
9,AATTCAAA,0.23
10,ACCAAGGG,-0.135
11,GGGTGTAA,-0.0577
12,AGGGTGCC,-0.241
13,GGTCGCGA,-0.0477
14,ATAGTCAA,-0.0182
15,GTGACATA,0.471
16,CTCCAGAG,-0.209
17,CCTCCTAG,-0.121
18,AGGACTGG,-0.203
19,AAGCCAGA,-0.114
20,AACCTAAT,-0.0438
21,ACTACCGA,-0.235
22,ATTCCGCG,0.129
23,AATATGAA,0.241
24,CTGCCTGA,0.135
25,CAGCTCGG,-0.118

row,Sequence,PBM E-score
1,ACACGAAT,0.118
2,GTATCGGA,-0.137
3,GGACGCAC,-0.236
4,GTAGAATA,0.223
5,TCCACGCA,-0.0245
6,ACGTGACG,0.451
7,CTAGCAAC,0.00251
8,CACGGAAA,0.167
9,ATCACAAT,0.158
10,TAGATGGA,-0.124
11,GAGTCCGC,-0.298
12,TGTACAAA,0.0598
13,AGCTCTGC,-0.337
14,AGCTTGCG,-0.0677
15,AATGTAGA,-0.00645
16,AGAGTTAG,0.0934
17,CTGTATAA,0.0164
18,ATTCATAG,0.0473
19,GCTTGTAC,0.0044
20,CAATTGGC,0.0859
21,CCGGAGCA,-0.275
22,ACCGAACA,0.0409
23,GCGCCAGA,-0.153
24,TCCATTAA,0.0366
25,AAAGTGCG,0.125

row,Sequence,PBM E-score
1,GTATCCAC,-0.0793
2,TTAGCAAA,0.142
3,GACATAGA,0.143
4,CTCAAAAG,-0.00858
5,CGTATGCC,-0.0899
6,TACCGCCA,0.00379
7,GACGGAGA,-0.11
8,ACTAACCC,-0.0622
9,AGTCATCG,0.189
10,TCGTGTAA,0.103
11,ATTGCCCA,-0.101
12,CTGAGAAG,-0.26
13,TGACGCCA,0.466
14,GAGCCGAC,-0.229
15,CGCCTATA,-0.134
16,CCTACACC,-0.262
17,GCCTTAGA,-0.015
18,CATATGGA,0.0251
19,AAATTAAT,0.248
20,CCTATTGA,0.0211
21,AGACCTAT,0.00584
22,AAGCCCAT,-0.163
23,AACATCAT,0.378
24,AAGGCCAA,-0.194
25,CTGCCTTC,-0.237

row,Sequence,PBM E-score
1,GCTCACCC,-0.225
2,CGGGTCAG,0.00319
3,CGCGAAAG,0.00353
4,CTTACTAA,0.104
5,GATGAGAC,0.0611
6,CGTGTATA,0.141
7,ATAGCGCA,-0.135
8,AAGCGAAG,-0.0837
9,ATGTCTTG,-0.00382
10,AGTGAATG,0.171
11,ACAATCAT,0.162
12,GCGCAAGA,0.103
13,TACGATCA,0.174
14,GACTCTTA,0.00134
15,CCCTGAAC,0.108
16,CTCTGAGA,-0.155
17,AGGCGTCC,-0.14
18,GGCGGAAC,-0.217
19,CATCCAGC,-0.0585
20,CCATGGCC,-0.276
21,GAGCTAGA,-0.171
22,AACAAAAG,0.179
23,CTGTTTAC,0.184
24,ACTCTGCC,-0.0415
25,ACCGAGAA,0.109

row,Sequence,PBM E-score
1,CTCCTAAC,-0.121
2,ACGCACTG,-0.0512
3,AAAAGACA,0.271
4,AATCATCA,0.308
5,CATGGAAA,0.233
6,ACAGCAGG,-0.111
7,GAGTGGGA,-0.214
8,CCACGCGG,-0.0273
9,CCCATTAA,-0.144
10,GAAGCATA,-0.0652
11,GCTATTTA,0.0788
12,ATGACGGA,0.417
13,CCAAACAG,-0.139
14,GAGTAGAC,-0.0464
15,CAAAGCTC,-0.296
16,GAGCGCTA,0.0355
17,GCCAGGAA,-0.0424
18,AGTGACAT,0.459
19,GACCGTCC,-0.249
20,AACACGTA,0.274
21,AACGTAGG,-0.07
22,GTTATCCA,-0.0365
23,CCATAGAC,-0.152
24,AATTCATA,0.162
25,CCAGTTAA,0.175

row,Sequence,PBM E-score
1,CAAGGTGA,0.0541
2,ATAACCGA,-0.0162
3,GCAGTGCC,-0.14
4,ATATGTCA,0.404
5,GGTCACGA,0.0109
6,CGGCAGAA,0.122
7,TGGAACCA,0.0397
8,CAAGTAAG,0.0168
9,CAGCGAGG,-0.155
10,AAACGATT,0.0698
11,GCATCTGA,-0.28
12,CCATTTGC,0.0463
13,ACGAACCA,0.195
14,AGATTCCT,-0.144
15,GCCTATAC,-0.16
16,CTGATGAA,0.0772
17,AACCTGTC,-0.115
18,ATTCGACC,-0.183
19,CGCGTTCC,-0.172
20,TGTAATAA,0.329
21,GAGTGAGA,-0.0221
22,ATAGCCAT,-0.0348
23,AGTTGGGA,-0.0811
24,CTACCAGA,-0.0905
25,ACGACACA,0.167

row,Sequence,PBM E-score
1,ATAGCTCG,0.0364
2,CGCAGCCA,-0.163
3,TCACAAGA,0.00409
4,ATGCGTAC,0.0302
5,GTTTGCGA,0.0351
6,CGCCGAAC,0.243
7,GCCATAAA,0.0469
8,AATCCAAT,0.139
9,GGTAAACC,-0.129
10,CCCAAGAA,-0.0927
11,ATAACTCG,0.0754
12,GTTATAAC,0.222
13,ACCTTACT,0.156
14,TAAGGCGA,0.0918
15,GATGGATA,-0.0778
16,AATGCGAA,0.051
17,GTACGTAA,0.449
18,AACAGAGT,0.0698
19,CATTTGCA,0.14
